{"source": "paper PMC12136788", "binders": {"B1": {"name": "chr8:67197462:67197463:-_ENSMUSG00000031604_ENSMUST00000034015|mus_mus|motif|central (ssRNA)", "RNA": "GGGAGUUCUACAGUCCGACGAUCUCCGAACUGACCAGUGUAUGUAAAAGGCUUAAAAGGCAACGUCAACUUCAGCCUCCGGUGGCAUGAAGUGGUGAGUUGUACAUUAAUACUUCCUCCAGUUCCCGAAACCUUUUGGUGAGGCAACAGAGGAUUGAGCAUCA"}, "B2": {"name": "chr18:35731649:35731650:+_ENSMUSG00000037236_ENSMUST00000166793|perfect_dup|motif|central (ssRNA)", "RNA": "GGGAGUUCUACAGUCCGACGAUCCCCUACCGAGAGAUGACUGCUGGAAUGACUUGGACAUUGUAGAACUAUCUCUUGUCGGUUUUAUAGAUCAAAAAAAAAAAAAAAAGUUUUAAAAGAUGGCCAAAAAGAAAGCUCAAGCUACAACAGAGGAUUGAGCAUCA"}, "B3": {"name": "chr22:19452774:19452775:-_ENSG00000070010_ENST00000399523|hu_hu|hu_hu_hu_mus_False|1_58 (ssRNA)", "RNA": "GGGAGUUCUACAGUCCGACGAUCCUUCUCAUUGUAGUUGAUAGCAAUCACAUCUCCAGUCGUCAGACAGGCGAAGUUCCUAAGUGCAUUUUCUAAUACCGCUUUAGGGUUGGUAAUAUCCAGGAAGUCUGGGCUCUGAGGUUGCAACAGAGGAUUGAGCAUCA"}, "B4": {"name": "chr9:79619141:79619142:-_ENSMUSG00000032328_ENSMUST00000034878|mus_hu|motif|central (ssRNA)", "RNA": "GGGAGUUCUACAGUCCGACGAUCAAAUUAAAUGGUAAUGUCAGCUGUAUUACUACUGUUUCUAUAUUUAUGAUUAAUUACGGGCAGUACAACUCCCAGAAGGAAGGAGAUGGAUCCAACAGCGAUGUAAGCAAUCCCCAAAAACAACAGAGGAUUGAGCAUCA"}, "B5": {"name": "chr6:86324874:86324875:-_ENSG00000135316_ENST00000355238|perfect_dup|FALSE|FALSE (ssRNA)", "RNA": "GGGAGUUCUACAGUCCGACGAUCGGAUGGAGCAGCACCCCUUGCUCCUCUACCACCCCUUCCUCUAGCUCCAACUUGAAAAUCUUCAUAACCAUAGUAUGGAUCUUCAUAUCCACCACGAUAGUUAUGGUAAUCAUAACCAUACAACAGAGGAUUGAGCAUCA"}, "B6": {"name": "chr5:28717518:28717519:+_ENSMUSG00000048271_ENSMUST00000114884|mus_mus|FALSE|FALSE (ssRNA)", "RNA": "GGGAGUUCUACAGUCCGACGAUCAGCAACAGGUGUAGAGGAGCAUCGGUUACCACUCAUCUCCAAAACAUGUGAAGGUGCUAUGGGGAGUUCACGGAGAUUACUGUUCCUGGGAGCAGUGGGUUGCAUCUGCUGCAUGGGCCGCAACAGAGGAUUGAGCAUCA"}, "B7": {"name": "chr11:77336104:77336105:-_ENSG00000074201_ENST00000525064|hu_mus|hu_hu_hu_mus_False|1_58 (ssRNA)", "RNA": "GGGAGUUCUACAGUCCGACGAUCCUCACACAUUGCUGUGAACAUCGCCUCCAAUGCUGACUUAUCACUGGGCACAAAUCUAAAUUCAGAAAUGGGUUCAACAUCAUCAUUGUCUUCCUCAUCUUCAUCAGAGAGAGCAGGUUCCAACAGAGGAUUGAGCAUCA"}, "B8": {"name": "chr18:56900473:56900474:+_ENSMUSG00000024590_ENSMUST00000025486|mus_hu|motif|central (ssRNA)", "RNA": "GGGAGUUCUACAGUCCGACGAUCAACAUCAAUUUCUUCGAUGCAAACAUUUCCAGUGGCUGAGGCGGAAUGAGAGAUGCGGACACGGCUACUCGCCUCUGAUUCUUCCACAUCAACCCUCUUCCGCUUUCCUCUAGUUGUACGCAACAGAGGAUUGAGCAUCA"}, "B9": {"name": "chr10:76735483:76735484:+_ENSG00000156650_ENST00000287239|hu_hu|FALSE|FALSE (ssRNA)", "RNA": "GGGAGUUCUACAGUCCGACGAUCAGUGCAUGACUGUUUCUGAGAGACCUUUUUCCUUGGACGAUAGUGCUUUGAAAAGUCUAUAAUUUCACCUCGUGAUCUGCGACCAUCAGGUGAUGGUGUAAAAAACUUAGUAAGGCCAUCCAACAGAGGAUUGAGCAUCA"}, "B10": {"name": "120768299_120771588_1247_3pUTR_ENSMUSG00000027272_ENSMUST00000028728|mouse|control|control (ssRNA)", "RNA": "GGGAGUUCUACAGUCCGACGAUCCUGUUUAUAAUACUUCACAAAUUCCAUAGCAAAGAGUUUUUUGUAUUCCAUCUCCAUAAAAAAACUACUAAAGAUCAAUUCAUGAAGGAUCUUACGGGCACCUUUAUAAAGUUUUGCAUCCAACAGAGGAUUGAGCAUCA"}, "B11": {"name": "chr10:10886374:10886375:+_ENSMUSG00000090112_ENSMUST00000044053|mus_mus|motif|central (ssRNA)", "RNA": "GGGAGUUCUACAGUCCGACGAUCAUGUGGGAUAUUGACAUAGUUUAGUUCUGAACGAAGAACAUCAUAGGUAAUGAUAACGGUAUCUUGUUCUGCCAAAAAAUGAGGCUGUAAGAAGCCGUGUUUCUUCACUCCUUGAUAUACCAACAGAGGAUUGAGCAUCA"}, "B12": {"name": "chr8:95500983:95500984:-_ENSG00000164944_ENST00000437199|hu_hu|hu_hu_hu_mus_True|1_1 (ssRNA)", "RNA": "GGGAGUUCUACAGUCCGACGAUCAGAACACAUCUAUCGAGUAAAGGACCGUACAUGACGGCCUCUACCACUGCCUCCACUAACAAACUUUCCUCUCGAGCCUCCACUGCCGCUAUUUGUACUAGCCCAGGACGGUCCCAAGUCCAACAGAGGAUUGAGCAUCA"}, "B13": {"name": "chr4:95690885:95690886:+_ENSMUSG00000028572_ENSMUST00000156910|mus_mus|mus_mus_mus_hu_False|1_18 (ssRNA)", "RNA": "GGGAGUUCUACAGUCCGACGAUCUUUAGAAAAUGUUAAAUACCAUGCUAAAAUAUUUUCAAAGGCUUAUUUUAUUUUACCAGAAGUCACAGGCAAGCAGACACUACAAGAAUAUAUAAAUACAAACCUCAACAAUAAAAUGUACAACAGAGGAUUGAGCAUCA"}, "B14": {"name": "18810149_18812865_195_3pUTR_ENSG00000170540_ENST00000304414|human|control|control (ssRNA)", "RNA": "GGGAGUUCUACAGUCCGACGAUCCUGCAGCCAGCAGGUUGGUGCUGCGAUUAUCUCCCUCCGCCAUCGUCUCGGGGAUGCAGUCUCUACAAGCGCAGGCCACCUCCCCAACGAGUCCUCCAACCGAAACCCGCACACCAACCACAACAGAGGAUUGAGCAUCA"}, "B15": {"name": "chr1:63494365:63494366:+_ENSMUSG00000025964_ENSMUST00000114107|mus_hu|motif|central (ssRNA)", "RNA": "GGGAGUUCUACAGUCCGACGAUCUGAAGGCAGUGUGAUUUCUUUCUGCAUUGCAUUGCUGUAACUGAUAUUACUGCUGCGGUUCUGUUGCAAUGUAUUGUCUUCAUCUGCCAGGACUCCCAAAUUUUUUUCUGCAGUUUCAUUCAACAGAGGAUUGAGCAUCA"}, "B16": {"name": "chr4:39523128:39523129:-_ENSG00000109814_ENST00000316423|hu_mus|FALSE|FALSE (ssRNA)", "RNA": "GGGAGUUCUACAGUCCGACGAUCGCACGUGGGUCCGCCGACAUAGCCCGCACCAAUGCAACAGAUCUUCUUAAUCUCAACCAUGACUGAACCACUUCCAAAGCAGGGACACAGCGGCCGUGCAGAUCCCGUUCUCUCGGACAGCAACAGAGGAUUGAGCAUCA"}, "B17": {"name": "chr19:30213842:30213843:-_ENSMUSG00000024827_ENSMUST00000025778|mus_mus|motif|central (ssRNA)", "RNA": "GGGAGUUCUACAGUCCGACGAUCAAUGUGCUUCAGCCCCUGGGAUCCAUGGUAAAUGGCGAACAUGGCAGCCAUGUUGGCGGAAAGGGCCUGAGCCGUGCAGAUGUUGCUGGUGGCUUUGUCUCUCCGGAUGUGUUGUUCUCUCAACAGAGGAUUGAGCAUCA"}, "B18": {"name": "chr19:47610742:47610743:-_ENSMUSG00000042694_ENSMUST00000049369|mus_mus|motif|central (ssRNA)", "RNA": "GGGAGUUCUACAGUCCGACGAUCUGGCACUUGUUGGGACUCCUUCAUCUCCAGGAUAUCCUUGAUGUAGAGUUUUGCAAAGGCGGGAAACACAGGAUCCAGACCCCAAAAGAGGGGCGGGAUCUCCUCUUCCCUUGGACUGGACAACAGAGGAUUGAGCAUCA"}, "B19": {"name": "chr1:109605286:109605287:-_ENSG00000197780_ENST00000461096|hu_mus|hu_hu_hu_mus_True|1_68 (ssRNA)", "RNA": "GGGAGUUCUACAGUCCGACGAUCAAGUUUCAGAGUAACAUUCAGUAACCUCUUUAAAUGCAAUUAUCCUUACUUUAAGCUAAGCAGAAUAAUAAUUUAAUACCGUAAGUGAACUACACACAAAGCCUGAACCGCGAAACUACACAACAGAGGAUUGAGCAUCA"}, "B20": {"name": "chr1:225611761:225611762:-_ENSG00000143815_ENST00000272163|hu_mus|hu_hu_hu_mus_True|1_38 (ssRNA)", "RNA": "GGGAGUUCUACAGUCCGACGAUCCCAGGCCAUCGGCCUCUGACCACUUCACCCUCAACAAACUUCCUACUUGGCAUUUUCUAAAAUUAGUCUGGCCCAGGUUCCGGGGGAACUCCAGCCACUCCAGGACAGUCACCCGCACAGCAACAGAGGAUUGAGCAUCA"}, "B21": {"name": "chr2:42472670:42472671:+_ENSG00000143924_ENST00000318522|hu_hu|FALSE|FALSE (ssRNA)", "RNA": "GGGAGUUCUACAGUCCGACGAUCCGUGACUCAAGAGCUGACAGGCGAUCUUGAACAUCAGAAGUACUUGCAGCAGAAAUACUAUCAUCGAGACUGCCGGCGAAACCGUCCAUCUUGCGGGGAAAGCGCCGGGCUCCGGGCUUACAACAGAGGAUUGAGCAUCA"}, "B22": {"name": "chr12:2981354:2981355:-_ENSG00000111206_ENST00000359843|hu_hu|FALSE|FALSE (ssRNA)", "RNA": "GGGAGUUCUACAGUCCGACGAUCGCGGGAGCCCAGUCCAUCAGAACUCAUCUUUCGAAGCCACUGGAUGUUGGAUAGGCUAUUGUUGAUAGUGCAGCCUGCUGCCUCACCAUCUGCACAGGUCUCCCGUUUCUGCUCGCAAAGCAACAGAGGAUUGAGCAUCA"}}, "note": "This is one part of the list.", "data": [{"molecular_target": "T1, UNK ZnF1-3 (human, UniProt Q9C0B0 31-174)", "T1 sequence": "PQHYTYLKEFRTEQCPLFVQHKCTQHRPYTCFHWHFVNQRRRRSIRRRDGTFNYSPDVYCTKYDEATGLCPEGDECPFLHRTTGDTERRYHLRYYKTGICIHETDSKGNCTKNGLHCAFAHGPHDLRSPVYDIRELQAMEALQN", "test": "nsRBNS (natural sequence RNA bind-n-seq); RBNS binding buffer (assumed for nsRBNS): 25 mM Tris pH 7.5, 150 mM KCl, 3 mM MgCl2, 0.01% Triton X-100, 500 ug/ml BSA, 20 U/ml SUPERase-In, 4 C; UNK is unkempt and MSI1 is Musashi-1; names of the RNAs are library labels; protein concentration not given here; high values mean tight binding", "units": {"binding signal": "enrichment R"}, "values": [{"binder": "B1", "binding signal": 0.98}, {"binder": "B2", "binding signal": 2.32}, {"binder": "B3", "binding signal": 0.913}, {"binder": "B4", "binding signal": 2.19}, {"binder": "B5", "binding signal": 1.17}, {"binder": "B6", "binding signal": 2.02}, {"binder": "B7", "binding signal": 1.11}, {"binder": "B8", "binding signal": 0.447}, {"binder": "B9", "binding signal": 0.743}, {"binder": "B10", "binding signal": 0.852}, {"binder": "B11", "binding signal": 0.452}, {"binder": "B12", "binding signal": 1.01}, {"binder": "B13", "binding signal": 2.27}, {"binder": "B14", "binding signal": 0.782}, {"binder": "B15", "binding signal": 0.221}, {"binder": "B16", "binding signal": 1.01}, {"binder": "B17", "binding signal": 0.619}, {"binder": "B18", "binding signal": 0.476}, {"binder": "B19", "binding signal": 0.556}, {"binder": "B20", "binding signal": 1.18}, {"binder": "B21", "binding signal": 1.34}, {"binder": "B22", "binding signal": 0.653}]}]}
